Experimental data from PubChem BioAssay AID360 (National Center for Advancing Translational Sciences (NCATS), 2006).
In all, about 48,000 compounds went through this assay and about 550 (1.1%) were called active. Roughly 4% stayed inconclusive and do not appear here. Cut-off read from the data, not from the text of the source: active = potency below about 15 µM; inconclusive = mostly about 16 µM to 33 µM; inactive = weaker than that. This is one part of the list.

These compounds were tested against Lysosomal acid glucosylceramidase (Homo sapiens) (UniProt P04062) (assay: Glucocerebrosidase). Settings: purified enzyme, resorufin glucoside fluorescence (screen aimed at inhibitors), 20 min.
Procedure, shortened: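 Normal human glucocerebrosidase (0.2 nM final) was assayed with resorufin β-D-glucopyranoside (30 uM final) in 50mM citric acid/KH2PO4, 10mM sodium taurocholate, 0.01% tween-20, pH 5.9. Compounds were titrated; fluorescence (Ex 548, Em 600) read after 20 min at RT.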
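Note: the screen sought inhibitors.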
Potency is the fitted concentration of half-maximal effect.

Sequence of UniProt P04062 (P04062 whole entry, looked up): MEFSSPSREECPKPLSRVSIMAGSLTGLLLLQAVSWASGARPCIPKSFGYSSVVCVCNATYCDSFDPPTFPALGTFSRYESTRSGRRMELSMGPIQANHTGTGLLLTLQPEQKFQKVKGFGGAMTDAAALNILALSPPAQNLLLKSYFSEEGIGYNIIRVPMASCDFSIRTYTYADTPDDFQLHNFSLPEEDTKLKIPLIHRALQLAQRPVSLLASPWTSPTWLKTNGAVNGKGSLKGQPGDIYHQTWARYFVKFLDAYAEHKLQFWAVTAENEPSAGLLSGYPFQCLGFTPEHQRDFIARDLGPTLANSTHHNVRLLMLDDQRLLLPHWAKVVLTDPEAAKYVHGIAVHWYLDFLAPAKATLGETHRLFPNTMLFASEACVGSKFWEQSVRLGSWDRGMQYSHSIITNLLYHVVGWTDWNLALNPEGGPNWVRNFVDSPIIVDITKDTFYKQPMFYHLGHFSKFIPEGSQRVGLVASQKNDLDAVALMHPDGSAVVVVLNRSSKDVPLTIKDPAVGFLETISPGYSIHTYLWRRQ

Potency, inactive:
CCc1nc(NC(C)C)c2oc3ccccc3c2n1
CCOC(=O)C(C)n1cnc2c(nnn2-c2ccc(C)cc2)c1=O (configuration not stated) > 76.9 µM
O=C(O)CSCCn1cccn1 > 76.9 µM
CCOC(=O)c1ccc(N2Cc3ccccc3C2)cc1O > 76.9 µM
Cc1noc(C)c1C(=O)OCC(=O)c1c(N)n(CC(C)C)c(=O)n(C)c1=O > 76.9 µM
O=C(COC(=O)c1ccc(=O)n(Cc2ccccc2)n1)Nc1ccc2c(c1)OCCO2 > 76.9 µM
CCOC(=O)Nc1c(C)n(C)n(-c2ccccc2)c1=O > 76.9 µM
Nc1c(C(=O)c2cccs2)oc2ccccc12 > 76.9 µM
CCOC(=O)CCC(=O)Nc1ccc(S(=O)(=O)N2CCCC2)cc1 > 76.9 µM
Cc1ccc(C(=O)OCc2nnc(-c3ccccc3)o2)o1 > 76.9 µM
CC(=O)Nc1ccc2c(c1)C(=O)N(C1CCCCC1)C2=O > 76.9 µM
CCOC(=O)C1CCCN(S(=O)(=O)c2cccs2)C1 (configuration not stated) > 76.9 µM
O=C(Cc1cc(=O)oc2cc(O)ccc12)NCC1CCC(C(=O)O)CC1 (configuration not stated) > 76.9 µM
COc1ccc(-n2nc3ccccc3n2)cc1 > 76.9 µM
CC(C)COC(=O)N1CC(O)CC1C(=O)O (configuration not stated) > 76.9 µM
O=C(CN1CCN(Cc2ccccc2)CC1)c1ccc(Br)cc1 > 76.9 µM
Cc1cccc(OCC(=O)Nc2cc(C)c(C)cc2O)c1 > 76.9 µM
COc1cccc(C2=CC(c3ccc(OC)c(OC)c3OC)n3nnnc3N2)c1 (configuration not stated) > 76.9 µM
COc1cc(C)c(Cl)c(C)c1S(=O)(=O)NCc1ccc2c(c1)OCO2 > 76.9 µM
CCOc1cc(S(=O)(=O)NCCc2cccc(C)c2)c(OCC)cc1-n1cnnn1 > 76.9 µM
CC(=O)NC(Cc1c[nH]c2ccccc12)C(=O)NCc1ccc2c(c1)OCO2 (configuration not stated) > 76.9 µM
C=CCNC(=O)CN(c1ccc(F)cc1)S(=O)(=O)c1ccc(OC)cc1 > 76.9 µM
COCc1nc2ccccc2n1CCCOc1ccccc1 > 76.9 µM
O=C(Nc1ccc2c(c1)OCO2)C1CCN(c2ccc(S(=O)(=O)N3CCOCC3)cc2)CC1 > 76.9 µM
COc1ccccc1CNC(=O)CCNC(=O)Cn1cnc2ccccc2c1=O > 76.9 µM
CCCCNC(=O)CC(NS(=O)(=O)c1ccc(C)cc1)c1ccco1 (configuration not stated) > 76.9 µM
Cc1csc(NC(=O)C2CCN(C(=O)CSc3nnc(C)n3Cc3ccccc3)CC2)n1 > 76.9 µM
Cc1ccc(C)c(S(=O)(=O)N2CCN(CC(=O)Nc3cc(C)on3)CC2)c1 > 76.9 µM
C=Cn1c(C(=O)O)cc(CC)c1-c1ccccc1 > 76.9 µM
Cc1cnc(C(=O)Nc2ccccc2-c2ccc(C)o2)cn1
COC(=O)CN(C#N)c1nc(OC)nc(N(C)C)n1 > 76.9 µM
CCC(Oc1ccc(C)c(C)c1)C(=O)O (configuration not stated) > 76.9 µM
COc1ccc(-c2nc(N3CCOCC3)nc3nn4c(C)c(CCC(=O)O)c(C)nc4c23)cc1 > 76.9 µM
O=C(Cn1c(=O)[nH]c2ccsc2c1=O)N1CCN(c2ccc(F)cc2)CC1 > 76.9 µM
Cc1ccc(F)cc1NC(=O)C1CCN(c2cnccn2)CC1 > 76.9 µM
CC(=O)c1c(C)nc2ccccc2c1N > 76.9 µM
O=C(NCC(=O)N(CC1CCCO1)C(C(=O)NC1CCCC1)c1cccnc1)c1ccco1 (configuration not stated) > 76.9 µM
Cc1ccc(NC(=O)C2CCN(S(=O)(=O)c3cnc[nH]3)CC2)nc1 > 76.9 µM
O=C(NCCCNC(=O)NC1CCCCC1)NC1CCCCC1 > 76.9 µM
COCCn1c(SCC(=O)Nc2ncc(C)s2)nc2sc3c(c2c1=O)CCC3 > 76.9 µM
CC1CC(C(F)(F)F)n2ncc(C(=O)O)c2N1 (configuration not stated) > 76.9 µM
CC(=O)NCCc1ccc(S(=O)(=O)Nc2cccnc2)cc1 > 76.9 µM
O=C(NC1CCCCCC1)c1ccc(N2CCCC2=O)cc1 > 76.9 µM
COc1ccc(N=C2SCC(=O)N2c2ccc(OC)cc2)cc1 > 76.9 µM
COc1cccc2c1OC1(C)CC2/C(=C(\C)O)C(=O)N1 (configuration not stated) > 76.9 µM
COCCn1cnnc1SCC(=O)Nc1ccccc1C(=O)Nc1ccc2c(c1)OCO2 > 76.9 µM
COCCn1c(-c2ccccc2F)n[nH]c1=S > 76.9 µM
COc1ccc(N2CCN(C(=O)c3cccc(N4C(=O)C5CC=CC(C)C5C4=O)c3)CC2)cc1 (configuration not stated)
Cn1c(C(=O)O)c(CC(=O)Nc2ccc3c(c2)OCCO3)c2ccccc21 > 76.9 µM
Cc1nn2c(c1-c1ccccc1)N=C(c1ccco1)CC2c1ccccc1 (configuration not stated) > 76.9 µM
N#Cc1ccsc1NC(=O)c1cnccn1 > 76.9 µM
O=C(Cn1nc(-c2ccc3c(c2)OCCO3)ccc1=O)Nc1ccc(N2CCOCC2)cc1 > 76.9 µM
COc1ccc(CCNC(=O)CSCc2n[nH]c(=O)[nH]2)cc1OC > 76.9 µM
O=S(=O)(CCCc1ccccc1)c1ncn[nH]1 > 76.9 µM
CC(C)(C)NS(=O)(=O)c1ccc(CCC(=O)N2CCOCC2)cc1 > 76.9 µM
COCCN(CCOC)C(=O)c1cc2c(=O)n3ccccc3nc2s1 > 76.9 µM
Cc1cc2c3c(c1)C1(C(=O)N3C(C)(C)CC2C)C(C#N)=C(N)Oc2cc(O)ccc21 (configuration not stated)
O=C1CN(C(=O)CSc2nncn2-c2ccccc2)c2ccccc2N1 > 76.9 µM
COc1nc(OC/C(N)=N/O)nc(N2CCOCC2)n1 > 76.9 µM
Cc1cc(C(=O)CSc2nnnn2C)c(C)n1CCc1ccc(Cl)cc1 > 76.9 µM
N/C(COc1ccc(C(=O)O)cc1)=N\O > 76.9 µM
CC1CCCC(NC(=O)CSc2nnc(N)s2)C1C (configuration not stated) > 76.9 µM
CCN(C(=O)CSc1nncs1)c1c(N)n(Cc2ccccc2)c(=O)[nH]c1=O > 76.9 µM
CCOc1ccc(OCC)c(NC(=O)CN2CCN(c3cccc(C)c3)C(C)C2)c1 (configuration not stated) > 76.9 µM
COc1ccc(CC(=O)OCc2cc3cccc(C)c3[nH]c2=O)cc1 > 76.9 µM
Cc1cc(C)c(C#N)c(SCC(O)CS(=O)(=O)Cc2ccccc2)n1 (configuration not stated) > 76.9 µM
O=c1[nH]c(SCCOc2ccccc2)nc2ccccc12 > 76.9 µM
O=C(CSc1n[nH]c(=O)n1C1CC1)Nc1cc(Cl)ccc1Oc1ccccc1 > 76.9 µM
O=C(Nc1ccc(CN2CCOCC2)cc1)c1cc2ccccc2oc1=O > 76.9 µM
O=C(CSc1nc(-c2ccco2)cc(C(F)(F)F)n1)N1CCc2ccccc2C1 > 76.9 µM
CN(c1ccccc1C(=O)Nc1cccc(C(F)(F)F)c1)S(C)(=O)=O > 76.9 µM
Cc1sc(NC(=O)CSc2nnc(-c3ccc(F)cc3)o2)c(C#N)c1C > 76.9 µM
O=C(CCN1C(=O)C2C3C=CC(C3)C2C1=O)NCc1cccnc1 (configuration not stated) > 76.9 µM
COc1ccccc1CNC(=O)CCCn1c(=O)c2ccccc2n(CC(=O)NC2CCCC2)c1=O > 76.9 µM
COc1ccc(C(C)(C)C)cc1NC(=O)c1c(C)noc1C > 76.9 µM
CCn1nnnc1Oc1ccc(Cl)cc1 > 76.9 µM
COc1ccc2cc(CN(CC3COCCO3)S(=O)(=O)c3ccccc3)c(=O)[nH]c2c1 (configuration not stated) > 76.9 µM
O=C(NCc1cn2ccsc2n1)Nc1cccc(Cl)c1 > 76.9 µM
Cc1cc(C(=O)CN2C(=O)c3ccccc3C2=O)c(C)n1Cc1cccs1 > 76.9 µM
CCCn1c(SCC(=O)NC2CCCCC2)nnc1-c1ccncc1 > 76.9 µM
O=c1cc(CNCCCO)c2ccccc2[nH]1 > 76.9 µM
COc1c(Br)cc(Br)cc1C(=O)O > 76.9 µM
CSc1cccc(NC(=O)CN(C)S(=O)(=O)c2ccc(F)cc2)c1 > 76.9 µM
COc1cc(C2NC(=O)NC(O)(C(F)(F)F)C2C(=O)c2ccc(Cl)cc2)ccc1O (configuration not stated) > 76.9 µM
O=C(CNC(=O)c1cc2ccccc2o1)NCc1cccs1 > 76.9 µM
CCN1C(=O)/C(=C2/Sc3ccccc3N2CCCS(=O)(=O)O)SC1=S > 76.9 µM
Cc1ccc(NC(=O)CS(=O)CC(=O)Nc2cccc(C)c2C)cc1F (configuration not stated) > 76.9 µM
O=C(CSc1nnc(CN2CCOCC2)n1-c1ccccc1)N1CCc2ccccc21 > 76.9 µM
COCCn1c(CCC(=O)O)nc2c1c(=O)[nH]c(=O)n2CC(C)C > 76.9 µM
CCOC(=O)C1CCCN(c2nc(C)nc3c2oc2ccccc23)C1 (configuration not stated) > 76.9 µM
CC(=O)c1ccc(C(C)(C)c2ccc(C(C)=O)s2)s1 > 76.9 µM

Potency, active:
COc1ccc(N2CCN(Cc3nc(N)nc(Nc4ccccc4OC)n3)CC2)cc1 3.92 µM
